{"source": "patent US20250179210A1", "about": "“ANTI-CEACAM5 ANTIBODIES AND CONJUGATES AND USES THEREOF” (Merck Patent GmbH, priority 2022, published 2025)", "molecules": {"B1": {"name": "mAb1: anti-CEACAM5 antibody; two heavy chains SEQ ID NO: 13 and two light chains SEQ ID NO: 14 (antibody)", "heavy": "EVQLQESGPGLVKPSQTLSLTCTVSDGSVSRGGYYLTWIRQHPGKGLEWIGYIYYSGSTYFNPSLRSRVTMSVDTSKNQFSLKLSSVTAADTAVYYCARGIAVAPFDYWGQGTLVTVSSASTKGPSVFPLAPSSKSTSGGTAALGCLVKDYFPEPVTVSWNSGALTSGVHTFPAVLQSSGLYSLSSVVTVPSSSLGTQTYICNVNHKPSNTKVDKRVEPKSCDKTHTCPPCPAPPVAGPSVFLFPPKPKDTLMISRTPEVTCVVVDVSHEDPEVKFNWYVDGVEVHNAKTKPREEQYNSTYRVVSVLTVLHQDWLNGKEYKCKVSNKALPSSIEKTISKAKGQPREPQVYTLPPSREEMTKNQVSLTCLVKGFYPSDIAVEWESNGQPENNYKTTPPVLDSDGSFFLYSKLTVDKSRWQQGNVFSCSVMHEALHNHYTQKSLSLSPG", "light": "EIVLTQSPATLSVSPGERATLSCRTSQSVRSNLAWYQQKPGQAPRLLIYAASTRATGIPARFSGSGSGTEFTLTISSLQSEDFAVYYCQQYTNWPFTFGPGTKVDIKRTVAAPSVFIFPPSDEQLKSGTASVVCLLNNFYPREAKVQWKVDNALQSGNSQESVTEQDSKDSTYSLSSTLTLSKADYEKHKVYACEVTHQGLSSPVTKSFNRGEC"}, "B2": {"name": "ADC1 (conjugate)", "heavy": "EVQLQESGPGLVKPSQTLSLTCTVSDGSVSRGGYYLTWIRQHPGKGLEWIGYIYYSGSTYFNPSLRSRVTMSVDTSKNQFSLKLSSVTAADTAVYYCARGIAVAPFDYWGQGTLVTVSSASTKGPSVFPLAPSSKSTSGGTAALGCLVKDYFPEPVTVSWNSGALTSGVHTFPAVLQSSGLYSLSSVVTVPSSSLGTQTYICNVNHKPSNTKVDKRVEPKSCDKTHTCPPCPAPPVAGPSVFLFPPKPKDTLMISRTPEVTCVVVDVSHEDPEVKFNWYVDGVEVHNAKTKPREEQYNSTYRVVSVLTVLHQDWLNGKEYKCKVSNKALPSSIEKTISKAKGQPREPQVYTLPPSREEMTKNQVSLTCLVKGFYPSDIAVEWESNGQPENNYKTTPPVLDSDGSFFLYSKLTVDKSRWQQGNVFSCSVMHEALHNHYTQKSLSLSPG", "light": "EIVLTQSPATLSVSPGERATLSCRTSQSVRSNLAWYQQKPGQAPRLLIYAASTRATGIPARFSGSGSGTEFTLTISSLQSEDFAVYYCQQYTNWPFTFGPGTKVDIKRTVAAPSVFIFPPSDEQLKSGTASVVCLLNNFYPREAKVQWKVDNALQSGNSQESVTEQDSKDSTYSLSSTLTLSKADYEKHKVYACEVTHQGLSSPVTKSFNRGEC"}}, "key": {"[1]": {"system": "CEACAM5 and FcRn", "test": "Affinity to CEACAM5 and FcRn after Fc optimization", "type": "binding", "settings": "compared to the parent clone"}, "[2]": {"biological_target": "BSA (bovine serum albumin) (Bos taurus, UniProt P02769)", "sequence (P02769 25-607)": "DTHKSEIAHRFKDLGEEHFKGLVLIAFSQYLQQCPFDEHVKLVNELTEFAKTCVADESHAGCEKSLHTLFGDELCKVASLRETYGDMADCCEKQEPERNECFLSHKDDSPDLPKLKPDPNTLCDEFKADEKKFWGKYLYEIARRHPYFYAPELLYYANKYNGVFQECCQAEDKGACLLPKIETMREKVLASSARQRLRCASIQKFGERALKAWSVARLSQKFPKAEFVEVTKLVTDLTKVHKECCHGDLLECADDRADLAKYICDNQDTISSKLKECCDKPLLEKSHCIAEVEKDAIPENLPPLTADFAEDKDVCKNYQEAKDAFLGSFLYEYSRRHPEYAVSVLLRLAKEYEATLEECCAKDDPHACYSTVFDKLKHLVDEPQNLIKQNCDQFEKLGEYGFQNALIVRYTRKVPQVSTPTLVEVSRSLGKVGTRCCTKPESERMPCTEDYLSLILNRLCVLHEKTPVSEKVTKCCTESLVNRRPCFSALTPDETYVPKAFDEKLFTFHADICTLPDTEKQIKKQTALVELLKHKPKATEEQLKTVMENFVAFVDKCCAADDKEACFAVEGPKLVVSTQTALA", "test": "Selectivity ELISA, species and domains (negative control)", "type": "binding", "procedure": "Selectivity determination for mAb1 was done by titrating the antibody from 4 nM to 0.25 μM and applying it on 1 μg/ml bound recombinant human (rh) CEACAM5 ECD or its domains N-A1-B1, A2-B2, A3-B3 or bound recombinant Macaca fascicularis (mf) CEACAM5 ECD, all obtained from Syngene, in an ELISA assay."}, "[3]": {"system": "A549", "test": "Flow cytometry binding to cell lines", "design": "species or system human", "settings": "10 μg/mL primary antibody", "procedure": "(§1) Method used: 5E5 to 1E6 cells were used for flow cytometry analyses using a BD FACSCanto II (BD Biosciences) in 5 mL polystyrene tubes. Staining with 10 μg/mL primary antibodies (mAb1, rb8G4, mouse monoclonal Agilent Dako #M7072 clone #IL7) and respective fluorescently labeled secondary antibodies (donkey anti-human IgG Jackson-Dianova #709-116-149; donkey anti-mouse IgG Jackson ImmunoResearch #715-116-150, donkey anti-rabbit IgG Jackson-Dianova #711-116-152) were conducted in 50 μL 1% PBS/BSA for 20 to 30 min at 4° C. Between and after staining steps, cells were washed thrice with 1% PBS/BSA and resuspended in 500 μL 1% PBS/BSA (including 0.2 μg/mL DAPI for live cell gating) for flow cytometry analyses. For data evaluation, FlowJo software (BD Biosciences) was used."}, "[4]": {"system": "MKN-45", "test": "Flow cytometry binding to cell lines", "design": "species or system human", "settings": "10 μg/mL primary antibody", "procedure": "as §1"}, "[5]": {"system": "NCI-H441", "test": "Flow cytometry binding to cell lines", "design": "species or system human", "settings": "10 μg/mL primary antibody", "procedure": "as §1"}, "[6]": {"system": "MDA-MB-468", "test": "Flow cytometry binding to cell lines", "design": "species or system human", "settings": "10 μg/mL primary antibody", "procedure": "as §1"}, "[7]": {"system": "CEACAM5-negative MDA-MB-231 cells in co-culture with CEACAM5-positive SK-CO-1 cells", "test": "Bystander assay", "type": "cell-based, human"}, "[8]": {"system": "MKN-45", "test": "Viability assay (Cell Titer-Glo)", "type": "cell-based, human", "settings": "Table 2; at the highest tested compound concentration"}, "[9]": {"system": "human patient-derived NSCLC xenograft model LUPF160151", "test": "NSCLC PDX mouse model LUPF160151", "type": "in vivo", "settings": "single i.v. treatment, 6 mg/kg", "procedure": "Anti-tumor efficacy in vivo has been evaluated in the human patient-derived NSCLC xenograft model LUPF160151 (Shanghai LideBiotech CO., LTD). LUPF160151 tumor fragments were transplanted subcutaneously into the right flank of six to eight weeks old immunodeficient female mice (NU-Foxn1nu, Charles River). […] Tumor length (L) and width (W) were measured with calipers and tumor volumes were calculated using the formula L×(W^2)/2."}, "[10]": {"system": "MDA-MB-231", "test": "Viability assay (Cell Titer-Glo)", "type": "cell-based, human", "settings": "Table 2"}, "[11]": {"system": "LS174T", "test": "Viability assay (Cell Titer-Glo)", "type": "cell-based, human", "settings": "Table 2; at the highest tested compound concentration"}, "[12]": {"system": "human pancreatic cell line derived xenograft model HPAF-II", "test": "Pancreatic cell line derived xenograft model HPAF-II", "type": "in vivo, mouse", "settings": "single i.v. treatment", "procedure": "5×10^6 HPAF-II cells were injected subcutaneously into the right flank of six to eight weeks old immunodeficient female mice (Hsd:Athymic Nude-Foxn1nu, Envigo). […] Tumor length (L) and width (W) were measured with calipers and tumor volumes were calculated using L×(W^2)/2.\nEfficacy of ADC1-M and ADC3-M in comparison to ADC8 was evaluated in the human pancreatic adenocarcinoma, cell line-derived xenograft model HPAF-II (ATCC, CRL-1997). Six to eight weeks old immunodeficient female mice (Hsd:Athymic Nude-Foxn1nu, Envigo) were injected subcutaneously in the right flank with 5×10^6 HPAF-II cells. When tumors reached a mean volume of 150 mm^3, 10 mice/group were treated once intravenously with ADC1-M (1 mg/kg or 6 mg/kg) or with ADC3-M (1 mg/kg or 6 mg/kg) or with ADC8 (1 mg/kg or 6 mg/kg). Tumor length (L) and width (W) were measured with calipers and tumor volumes were calculated using L×W^2/2."}, "[13]": {"system": "SK-CO-1", "test": "Viability assay (Cell Titer-Glo)", "type": "cell-based, human", "settings": "Table 2; at the highest tested compound concentration"}}, "data": [{"molecule": "B1", "values": [{"measurement": "Affinity to CEACAM5 and FcRn", "setting": "[1]", "result": "maintaining the affinity"}, {"measurement": "Binding to BSA (negative control)", "setting": "[2]", "result": "No binding"}, {"measurement": "Quotient of MFI of antibody divided by MFI of secondary antibody only control", "setting": "[3]", "result": 1.1}, {"measurement": "Quotient of MFI of antibody divided by MFI of secondary antibody only control", "setting": "[4]", "result": 23.2}, {"measurement": "Quotient of MFI of antibody divided by MFI of secondary antibody only control", "setting": "[5]", "result": 2.2}, {"measurement": "Quotient of MFI of antibody divided by MFI of secondary antibody only control", "setting": "[6]", "result": 1.1}]}, {"molecule": "B2", "values": [{"measurement": "non-specific effect on MDA-MB-231 cells alone (only controls)", "setting": "[7]; ADC concentration of 1 nM", "result": "no non-specific effect"}, {"measurement": "bystander effect against CEACAM5-negative MDA-MB-231 cells in the presence of CEACAM5-positive SK-CO-1", "setting": "[7]; ADC concentration of 1 nM, six days", "result": "potent bystander effect"}, {"measurement": "bystander effect compared to ADC SAR DM4", "setting": "[7]; co-culture, 1 nM", "result": "much more potent bystander effect"}, {"measurement": "MKN-45 maximal effect compared to untreated controls", "setting": "[8]", "result": "(−78%)"}, {"measurement": "anti-tumor effect", "setting": "[9]", "result": "significant anti-tumor effect"}, {"measurement": "impact on body weight", "setting": "[9]", "result": "no impact on body weight"}, {"measurement": "MDA-MB-231 maximal effect compared to untreated controls", "setting": "[10]; at the highest tested compound concentration", "result": "(−67%)"}, {"measurement": "IC50", "setting": "[10]; six days, geometric mean, N ≥ 3, CEACAM5 Negative", "result": "> 10", "unit": "nM"}, {"measurement": "LS174T maximal effect compared to untreated controls", "setting": "[11]", "result": "(−72%)"}, {"measurement": "anti-tumor effect", "setting": "[12]; 1 mg/kg", "result": "mild but significant, transient anti-tumor effect"}, {"measurement": "anti-tumor effect", "setting": "[12]; 6 mg/kg", "result": "significant anti-tumor effect"}, {"measurement": "SK-CO-1 maximal effect compared to untreated controls", "setting": "[13]", "result": "(−97%)"}]}]}
